Article PMC4336329 (PLoS ONE, 2015)
Among all 310,000 compounds or so, about 2,200 (0.71%) showed an effect of 50% or more. Effects have a minus sign here. Some of the results follow.

What follows are compounds tested against human ether-à-go-go-related gene (hERG) potassium channel (human, UniProt Q12809) (assay: primary screen, population patch clamp on CHO cells stably expressing hERG).
human ether-à-go-go-related gene (hERG) potassium channel, sequence (Q12809 whole entry, looked up): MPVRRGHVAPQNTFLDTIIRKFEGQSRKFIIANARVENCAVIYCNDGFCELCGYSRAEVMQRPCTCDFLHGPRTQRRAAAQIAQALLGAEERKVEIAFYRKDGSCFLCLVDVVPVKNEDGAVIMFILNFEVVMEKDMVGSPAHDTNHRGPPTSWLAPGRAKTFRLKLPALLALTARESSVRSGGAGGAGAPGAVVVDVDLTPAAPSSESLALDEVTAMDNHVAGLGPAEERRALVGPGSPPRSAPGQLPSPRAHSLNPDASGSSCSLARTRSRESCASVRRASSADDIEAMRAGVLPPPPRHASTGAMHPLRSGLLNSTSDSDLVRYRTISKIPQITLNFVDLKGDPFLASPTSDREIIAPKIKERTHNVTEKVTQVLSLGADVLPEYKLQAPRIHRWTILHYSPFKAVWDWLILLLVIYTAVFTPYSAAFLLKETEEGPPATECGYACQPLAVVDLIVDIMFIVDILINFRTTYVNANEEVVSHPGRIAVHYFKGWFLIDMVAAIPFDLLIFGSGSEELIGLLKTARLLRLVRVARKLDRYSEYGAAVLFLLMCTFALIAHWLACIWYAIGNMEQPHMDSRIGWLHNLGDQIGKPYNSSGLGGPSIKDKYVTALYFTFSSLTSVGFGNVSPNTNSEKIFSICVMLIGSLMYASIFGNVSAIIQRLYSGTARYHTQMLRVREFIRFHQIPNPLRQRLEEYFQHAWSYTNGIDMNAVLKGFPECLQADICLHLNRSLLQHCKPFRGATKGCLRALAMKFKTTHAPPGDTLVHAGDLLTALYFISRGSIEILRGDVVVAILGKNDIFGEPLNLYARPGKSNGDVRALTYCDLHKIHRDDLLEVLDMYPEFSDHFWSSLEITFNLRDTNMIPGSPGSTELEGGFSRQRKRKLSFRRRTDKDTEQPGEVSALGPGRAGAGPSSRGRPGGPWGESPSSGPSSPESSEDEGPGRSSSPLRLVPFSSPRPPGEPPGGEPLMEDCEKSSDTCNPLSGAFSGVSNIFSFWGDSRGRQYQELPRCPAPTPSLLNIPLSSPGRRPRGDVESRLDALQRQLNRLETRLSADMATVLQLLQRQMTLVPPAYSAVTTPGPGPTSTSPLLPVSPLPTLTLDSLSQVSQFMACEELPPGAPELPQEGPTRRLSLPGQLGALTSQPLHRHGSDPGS

First: Cc1ccccc1NC(=O)C1C2/C=C\CCCCC21 (stereo not drawn)
Second: O=C(NC1CCCCC1)C1c2ccccc2C(=O)N1Cc1ccco1 (stereo not drawn)
The “hERG current change (%, negative = inhibition) at 1uM” value of the first is higher: 8.68% for the first, -1.39% for the second.

Going from `Cc1ccc2nc(SCC(=O)Nc3cccc([N+](=O)[O-])c3)[nH]c2c1` to `Cc1ccc(Oc2ccc(NC(=O)Cn3ccsc3=N)cc2)cc1.Cl`, the “hERG current change (%, negative = inhibition) at 1uM” value falls from 3.12% to 1.56%.

Compared with `Cc1oc2cc(Br)c(O)c(Br)c2c1C(=O)c1ccccc1`, `COc1ccc(O)c(C(=O)CC(=O)c2ccccc2C)c1` is higher in “hERG current change (%, negative = inhibition) at 1uM” value: 4.92% for the first, 18.2% for the second.

First: COc1ccc(C)cc1S(=O)(=O)N1CCN(C)CC1c1ccccc1.Cl (stereo not drawn)
Second: COc1ccc([C@@H]2CC=C(C(=O)O)[C@H](c3ccccc3)N2S(=O)(=O)c2ccccc2C)cc1
The “hERG current change (%, negative = inhibition) at 1uM” value of the first is lower: 10.6% for the first, 11.2% for the second.

First: Cc1ccc(NC(=O)C2CCN(S(=O)(=O)c3ccc4c(c3)NC(=O)CO4)CC2)cc1
Second: Cc1ccc(Cl)cc1N1CCN(S(=O)(=O)c2cc3c(cc2C)NC(=O)CO3)CC1
The “hERG current change (%, negative = inhibition) at 1uM” value of the first is lower: -13.4% for the first, 7.77% for the second.

Going from `CC(C)(C)n1nc2c(c1NC(=O)c1cc(Cl)ccc1[N+](=O)[O-])CS(=O)(=O)C2` to `COc1ccc(C(=O)NC2CCN(Cc3c(F)cccc3Cl)CC2)cc1OC`, the “hERG current change (%, negative = inhibition) at 1uM” value falls from 16.9% to 10.1%.

Going from `C=CCOC(=O)C1=C[C@@H](c2cn(C(C)=O)c3ccccc23)C[C@@H](OCCCCO)O1` to `O=C(O)Cn1cc(C(=O)c2ccccc2F)c2ccccc21`, the “hERG current change (%, negative = inhibition) at 1uM” value rises from 4.48% to 16.8%.

Going from `CCCCNC(=O)CCn1nc(-c2ccc(C)cc2)c2ccccc2c1=O` to `CC(C)OCCCNC(=O)CCCC(=O)Nc1ccc(OCCc2ccccc2)cc1`, the “hERG current change (%, negative = inhibition) at 1uM” value rises from 2.87% to 17.8%.

Compared with `O=C(CN1C(=O)NC2(CCCc3ccccc32)C1=O)NCc1cccs1` (stereo not drawn), `O=C1NN(c2ccccc2)C(=O)/C1=C\c1cccc(OC(=O)c2cccs2)c1` is lower in “hERG current change (%, negative = inhibition) at 1uM” value: 11% for the first, 8.42% for the second.

First: Cc1cccc(C2c3[nH]c4ccccc4c3CCN2C(=O)c2cc(-c3cccn3C)n[nH]2)n1 (stereo not drawn)
Second: O=C1CN(C(=O)c2cc3ccccc3oc2=O)C(c2ccc(F)cc2)c2cc(F)ccc2N1 (stereo not drawn)
The “hERG current change (%, negative = inhibition) at 1uM” value of the first is higher: 5.01% for the first, 4.13% for the second.

First: CCCS(=O)(=O)N1CCCC(C(=O)N2CCCCC2)C1 (stereo not drawn)
Second: Cc1ccc([N+](=O)[O-])cc1S(=O)(=O)N1CCCN(C)CC1.Cl
The “hERG current change (%, negative = inhibition) at 1uM” value of the first is higher: 18.2% for the first, 15.8% for the second.

Going from `CC(=O)c1cnc2c(-c3ccccc3)cnn2c1C` to `CC(=O)Nc1ccccc1NC(=O)c1cc(C)cc(C)c1`, the “hERG current change (%, negative = inhibition) at 1uM” value rises from 4.96% to 11.5%.

Compared with `O=C(CCC(=O)N1CCOCC1)NCCc1ccc(Cl)cc1Cl`, `C=COCCNC(=O)Nc1ccc(Cl)cc1Cl` is higher in “hERG current change (%, negative = inhibition) at 1uM” value: 4.48% for the first, 8.22% for the second.

First: O=S(=O)(Nc1cccc(-c2nc3cccnc3s2)c1)c1cccs1
Second: COc1ccc(NC(=O)c2cccc3c(Br)cccc23)cc1
The “hERG current change (%, negative = inhibition) at 1uM” value of the first is lower: 7.81% for the first, 15.3% for the second.

Going from `CCOCC(O)CS(=O)Cc1ccccc1` (stereo not drawn) to `O=C(CCc1ccccc1)NNC(=S)Nc1ccc(F)cc1`, the “hERG current change (%, negative = inhibition) at 1uM” value falls from 10.3% to 4.35%.

Going from `Cc1nn(-c2ccccc2)c2nc(=O)n(-c3ccccc3)cc12` to `CC1C(=O)C(C)C(c2ccccc2F)NC1c1ccccc1F` (stereo not drawn), the “hERG current change (%, negative = inhibition) at 1uM” value falls from 9.27% to 7.91%.

Going from `CN(c1ccccc1)S(=O)(=O)c1cccc(C(=O)Nc2nn[nH]n2)c1` to `CCN(CC)S(=O)(=O)c1csc(C(=O)Nc2ccccn2)c1`, the “hERG current change (%, negative = inhibition) at 1uM” value falls from 7.06% to -3.46%.

Going from `CCc1cc(C(=O)N/N=C/c2ccc(O)cc2O)c2ccccc2n1` to `CCOc1ccccc1Oc1cn[nH]c1-c1ccc(O)cc1O`, the “hERG current change (%, negative = inhibition) at 1uM” value falls from 15% to 9.91%.

Compared with `CC1(C)CC(=O)C2=C(C1)NC(=O)CC2c1ccccc1F` (stereo not drawn), `C=CCNc1nc(Nc2ccccc2F)nc(OCC)n1` is higher in “hERG current change (%, negative = inhibition) at 1uM” value: -1.08% for the first, 5.09% for the second.

Compared with `CCN(CC)c1ccc(/C=N/NC(=O)c2ccccn2)cc1`, `COc1ccc(CNC(=O)Oc2ccccc2)cc1Cl` is lower in “hERG current change (%, negative = inhibition) at 1uM” value: 10.3% for the first, 7.05% for the second.

First: CCOc1ccc(CSC(=N)N)cc1.Cl
Second: CCOc1ccccc1C1CC(c2ccc(Br)cc2)Nc2nc(N)nn21 (stereo not drawn)
The “hERG current change (%, negative = inhibition) at 1uM” value of the first is higher: 9.77% for the first, -9.81% for the second.

Going from `COc1ccc(Cl)cc1C(=O)C1CCCN(CCO)C1` (stereo not drawn) to `O=C(Nc1ccc2[nH]ncc2c1)C1CCC1`, the “hERG current change (%, negative = inhibition) at 1uM” value rises from 11.2% to 12.3%.

Going from `O=C(Nc1cc(Cl)cc(Cl)c1)c1ccc(Cn2c(=O)[nH]c3ccsc3c2=O)cc1` to `COc1ccc(OC)c(C(=O)c2ccc(C(=O)Nc3cccc4ccccc34)cc2)c1`, the “hERG current change (%, negative = inhibition) at 1uM” value rises from 6.12% to 15.1%.

Going from `CNCc1ccccc1OCc1ccccc1F.Cl` to `O=C(CSc1nnc(-c2ccccn2)n1Cc1ccccc1)N1CCCC1`, the “hERG current change (%, negative = inhibition) at 1uM” value falls from 9.82% to -3.87%.

Going from `CN(C)CCCN(Cc1cc2cc3c(cc2[nH]c1=O)OCO3)C(=S)Nc1cccc(Cl)c1` to `CC(c1ccon1)N(C)C(=O)c1ccc2nc(Cc3cccc(Cl)c3)oc2c1` (stereo not drawn), the “hERG current change (%, negative = inhibition) at 1uM” value rises from -4.06% to -3.4%.

Compared with `COc1cc(NS(=O)(=O)c2ccc(NC(=S)NC(=O)c3ccc(F)cc3)cc2)nc(OC)n1`, `O=C(Cc1ccc(Nc2nc(=S)[nH]c3ccccc23)cc1)NC1CCCCC1` is higher in “hERG current change (%, negative = inhibition) at 1uM” value: 0.221% for the first, 19.8% for the second.

Compared with `COc1cc(/C=C(\C#N)c2[nH]nc(N)c2C#N)cc(OC)c1O`, `COc1cccc([C@@H]2Oc3ccc(OC)cc3C(=O)[C@H]2OC(=O)N[C@H](C)C2CCCCC2)c1` is lower in “hERG current change (%, negative = inhibition) at 1uM” value: 20.9% for the first, 12.4% for the second.

Compared with `CC(C)CC1NC(=O)N(CC(=O)c2ccc3c(c2)OCCO3)C1=O` (stereo not drawn), `Cc1ccc(NS(=O)(=O)c2ccc(Br)s2)cc1S(=O)(=O)N1CCOCC1` is higher in “hERG current change (%, negative = inhibition) at 1uM” value: 9.81% for the first, 13.2% for the second.

With `OC(CCc1cccc(Cl)c1)c1cccs1` (stereo not drawn) the “hERG current change (%, negative = inhibition) at 1uM” value was 17.3%.
